Experimental data as given in US20240002332A1, “Small Molecule Inhibitors of SARS-CoV-2 Infections” (priority 2020, published 2024).

Test system: SARS-CoV-2
Conditions: 30 mpk BID, 60 mpk BID, 60 mpk SID; days 2 and 4

O=C(Nc1ccc([N+](=O)[O-])cc1Cl)c1cc(Cl)ccc1OC(=O)N1CCNCC1 [Compound P3, 4-chloro-2-((2-chloro-4-nitrophenyl)carbamoyl)phenyl piperazine-1-carboxylate]
subgenomic SARS-CoV-2 RNA in oropharyngeal swabs: dose dependent decrease in the subgenomic RNA was seen and was comparable to the EIDD group
